Like-named read-outs stand apart in the source and are kept apart here.
Assays:
[1] = test system: enterohemorrhagic E. coli infections; settings: 10 days
Protocol: In a field study in a commercial piglet farm with evident problems with enterohemorrhagic E. coli infections a number of 360 piglets was divided into 6 groups after weaning. All animals received a commercial standard diet for weaning piglets (see Example 1, Table 2). The zero control group received this feed without addition of any therapeutics or additives. For the Neomycin control group Neomycin was added to the feed in a therapeutic dosage of 10 mg Neomycin sulfate/kg body mass/day. The four test groups received the weaning diet with addition of the test substance in various concentrations. In this example, the test substance was a mixture of wood from spruce and pine tree in combination with an oligomeric procyanidin with more than 8 catechin units in an amount of 0.3 wt %. Incidence of diarrhea was reported for all groups during the test period of 10 days.

[2] = in vivo
Protocol: (§1) In a field study in a commercial piglet farm with evident problems with enterohemorrhagic E. coli infections a number of 360 piglets was divided into 6 groups after weaning. All animals received a commercial standard diet for weaning piglets (Table 2). The “zero control group” received this feed without addition of any therapeutics or additives. For the “antibiotic group” (positive control group) Neomycin was added to the feed in a therapeutic dosage of 10 mg Neomycin sulfate/kg body mass/day “on-top”. The four test groups received the weaning diet with an “on-top” addition of various concentrations of the test substance. The test substance was a quorum sensing inhibitor of the invention, comprising a product composed of wood from spruce and pine tree.
In the test an effect of the feed additive of the invention was even evaluated in regard of the body temperature of the animals.

[3] = test system: enterohemorrhagic E. coli infections; settings: 10 days; remark: listed apart in the source
Protocol: as §1
Incidence of diarrhea was reported for all groups during the test period of 10 days.

Neomycin
Incidence of diarrhea [1]: 60%
Average body temperature [2]: 39.6 °C
Incidence of diarrhea [3]: 56.7%

— US20230371550A1 (priority 2017, published 2023)
